# According to PubChem BioAssay AID1956 (SRMLSC, 2009):
# The list shows a part of the results. Further columns of the screen follow, without active or inactive calls.
# Experiment: enhancers of HSV replication in host cells, fold increase, host cell viability (AID 1956); further: tested in PC3 cells
# Details: HSV replication augmentation in cells; fold increase: measured here: primary screen fold increase 10 uM, at 10 µM, stronger effect = higher value; viability: measured here: host cell viability series, at 25 µM, stronger effect = lower value
SMILES,fold increase,viability [%]
CCCc1ccc(/C=C2\C(=O)c3ccccc3C(O)=C2C(=O)OCC)cc1,1.81,86.6
CC(=O)c1ccc(Nc2c3c(c(C#N)c4nc5ccccc5n24)CCC3)cc1,1.65,94.5
Cc1cccc(NC(=S)NC(=O)c2cc(-c3ccccc3)nc3ccccc23)c1,1.21,–
CN1CCN(C(=O)c2ccc(C(F)(F)F)cc2)CC1,1.33,94.5
Cc1ccc(-n2ncc3c(=O)n(CC(=O)Nc4cccc(Cl)c4)cnc32)cc1C,1.15,–
CCCCn1c(/N=C/c2ccccc2NS(=O)(=O)c2ccc(C)cc2)nc2ccccc21,1.39,89.3
CCOCCCn1cnc2c(c1=O)c1nc3ccccc3nc1n2-c1ccccc1,1.43,100
CC(C)c1ccc(/C=C2\Oc3c(ccc(O)c3CN3CCN(C)CC3)C2=O)cc1,1.37,98.2
CCn1c(=O)cc(SCC(=O)N2CCCCC2)c2ccccc21,1.41,90
COc1ccccc1NC(=O)CC1Nc2ccccc2NC1=O (centres undefined),1.32,96.6
Cc1cc(C=C2C(=O)CCCC2=O)c(C)n1-c1ccccc1,1.49,104
CC(=O)Oc1ccc(Cl)cc1/C=C/c1cc(OC(C)=O)c2ccccc2n1,2.4,67.2
CN1CC=C2C(C#N)=C(N)C(C#N)(C#N)[C@H](c3ccoc3)[C@H]2C1,1.38,–
CCN1/C(=C\c2ccc3cc(C)ccc3[n+]2CC)Sc2cc(C)c(C)cc21,7.96,–
O=C(O)c1ccc(/C=N/Nc2ncc(C(F)(F)F)cc2Cl)cc1,1.34,95.9
COC(=O)C1=COC(C)C2CN3CCc4c([nH]c5cc(OC)c(OC)cc45)C3CC12 (centres undefined),1.72,99.1
Cc1ccc(C(=O)COC(=O)c2cccc(N3C(=O)c4c(C)nc5ccccc5c4C3=O)c2)cc1C,1.38,99
COc1ccc(/C=c2\s/c(=C/C(=O)c3ccc(C)cc3)[nH]c2=O)c(OC)c1,5.41,89.7
Cc1c(-c2ccc(/C=N/NC(=O)C(=O)Nc3ccccc3F)o2)cccc1[N+](=O)[O-],1.48,93.3
Cc1ccc(C2=CC(c3ccc(N(C)C)cc3)n3nnnc3N2)cc1 (centres undefined),1.57,92.2

SMILES,fold increase,viability [%]
O=C1C(C2=C(O)c3ccccc3C2=O)=Nc2ccccc21,2.02,27.7
COc1ccc(CN2C(=O)Cc3c2nc(N)c2c(N)nc(N4CCCCC4)c(C#N)c32)cc1,1.65,95.5
CN(c1ccccc1)c1ccc(/C=c2\s/c(=C(/C#N)C(=O)C(C)(C)C)n(Cc3ccco3)c2=O)cc1,2.62,95.4
O=C(NNC1=Nc2cccc3cccc1c23)c1ccccc1Br,3.09,–
CCCN1C(=O)S/C(=C/c2ccc(N3CCOCC3)o2)C1=O,1.65,93
CCCN1C(=O)/C(=C/C=C2\N(CC)c3ccccc3C2(C)C)SC1=S,7.51,96.4
COc1cc(OC)c(-c2c3cc(O)c(=O)cc-3oc3cc(O)c(O)cc23)cc1OC,8.96,83.9
COc1cc(/C=C2/SC(=Nc3ccc(O)cc3)NC2=O)ccc1O,3.47,40.4
Cn1c(N/N=C/c2c[nH]c3ccccc23)nc2ccccc21,1.09,–
CCOc1ccc(C2=C(C=Nc3c(C)n(C)n(-c4ccccc4)c3=O)C(c3ccc(F)cc3)c3ccccc3O2)cc1 (centres undefined),1.22,–
CC(C)n1c(SCC(=O)Nc2nc3ccccc3s2)nc2c1c(=O)n(C)c(=O)n2C,1.11,–
Cn1c(SCc2ccc(C(C)(C)C)cc2)nnc1C1COc2ccccc2O1 (centres undefined),1.33,96.3
NNC(=O)c1oc2nc(-c3ccccc3)cc(-c3ccco3)c2c1N,3.14,104
COc1ccccc1N1C(=O)C2C(C(=O)c3ccccc3)=NN(c3ccc(Br)cc3)C2C1=O (centres undefined),1.74,98.9
O=C(NC(=S)NCc1ccco1)c1ccccc1,1.43,–
Nc1c(C(=O)Nc2ccccc2F)sc2nc(Cc3ccccc3)cc(C(F)(F)F)c12,2.44,104
O=C(Nc1ccc2c(c1)OCCO2)c1coc2ccccc2c1=O,1.34,86
CC(C)OC(=O)C(C(=O)C(F)(F)F)c1cc(NS(=O)(=O)c2ccc3ccccc3c2)c2ccccc2c1O (centres undefined),1.68,–
COC(=O)c1sc2cc([N+](=O)[O-])cc(SCC(C)C)c2c1N,3.77,–
O=C(NC1=NCCS1)c1ccccc1OCc1ccccc1Cl,1.37,91.1

SMILES,fold increase,viability [%]
Cc1cccc(NC(=O)/C=C/c2ccc([N+](=O)[O-])s2)c1,1.85,7.57
CCCCC(=O)Nc1ccc(C(=O)NNC(=O)c2ccccc2Br)cc1,1.32,98.5
O=C(Nc1cccn(Cc2cccc(F)c2)c1=O)NC1CCCCC1,1.34,91.3
C/C(=N\NC(N)=O)c1ccccc1,1.38,93.1
O=C1NC(=S)N(C(=O)c2ccc(F)cc2)/C1=C/c1ccccc1,1.75,90.3
CCn1c(=O)cc(SCC(=O)NCc2ccccn2)c2ccccc21,1.51,98.2
CCCCSc1cc(C)nc(N)n1,1.38,94
O=C(Nc1ccccc1)c1ccc(NCCc2ccccc2)c([N+](=O)[O-])c1,1.68,83.9
Nc1c(S(=O)(=O)c2ccccc2)c2nc3ccccc3nc2n1Cc1ccco1,2.28,88.3
C=CCn1c(C)c(C(C)=O)c(N2CCN(c3ccccc3)CC2)nc1=S,2.27,97.6
O=C(OCCN1C(=O)c2cccc3c(N4CCOCC4)ccc(c23)C1=O)c1cc(Cl)cc(Cl)c1,3.44,–
CCN(CC)C(=O)CSC(Nc1ccc(F)cc1)=C(C#N)C#N,3.22,87.3
CN1CCc2c(sc3c2C(=O)NC(c2ccc(-c4ccc(Cl)cc4)o2)N3)C1 (centres undefined),2.87,98.1
COc1ccc2c(Cl)c(C(=O)N/N=C3\CCCC(=O)C3)sc2c1,3.03,99.7
O=c1c(O)c(-c2ccc3c(c2)OCO3)oc2ccccc12,1.48,94.4
Cn1c(=O)c2[nH]c(-c3ccccc3)c(O)c2n(C)c1=O,1.44,–
C=CCn1c(C(CCC(C)C)CC(C)(C)O)n[nH]c1=S (centres undefined),1.37,98.3
COC(=O)C1=C(C(=O)OC)SC2(S1)C(C(=O)OC)=C(C(=O)OC)SC1=C2c2cc(C)ccc2NC1(C)C,1.18,–
CC(=O)c1ccc(N2Cc3ccccc3/C2=N\C(=O)Nc2ccccc2)cc1,1.38,90.1
